The target in test [1] is HA-tagged vBcl-2 ΔBH2 (murine γ-herpesvirus 68 (γHV68)) (UniProt P89884). Put plainly: co-IP; 293T cells transfected with HA-vBcl-2 (WT or mutant) and V5-tagged Beclin1; immunoprecipitation of HA-vBcl-2, immunoblot of V5-Beclin1; 1% NP40 lysis buffer, 4°C.
In test [2] the target is HA-tagged vBcl-2 ΔTM (murine γ-herpesvirus 68 (γHV68)) (UniProt P89884). The description is as above.
Test [3] concerns the target HA-tagged vBcl-2 Δα1 (murine γ-herpesvirus 68 (γHV68)) (UniProt P89884). The description is as above.
In test [4] the target is HA-tagged vBcl-2 Δα7 (murine γ-herpesvirus 68 (γHV68)) (UniProt P89884). Described as above.
The target of test [5] is T1, HA-tagged wild-type vBcl-2 of γHV68 (murine γ-herpesvirus 68 (γHV68)) (UniProt P89884).
T1 sequence: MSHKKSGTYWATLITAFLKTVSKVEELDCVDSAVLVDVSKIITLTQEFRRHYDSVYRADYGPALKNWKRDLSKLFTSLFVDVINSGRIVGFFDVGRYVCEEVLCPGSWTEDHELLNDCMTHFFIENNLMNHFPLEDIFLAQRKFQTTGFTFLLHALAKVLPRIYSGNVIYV
The test is described as above.

Amino acid sequences for entries named in this document (tags omitted). A change or cut given only in a name is not applied to a line headed by its entry.
UniProt Q14457: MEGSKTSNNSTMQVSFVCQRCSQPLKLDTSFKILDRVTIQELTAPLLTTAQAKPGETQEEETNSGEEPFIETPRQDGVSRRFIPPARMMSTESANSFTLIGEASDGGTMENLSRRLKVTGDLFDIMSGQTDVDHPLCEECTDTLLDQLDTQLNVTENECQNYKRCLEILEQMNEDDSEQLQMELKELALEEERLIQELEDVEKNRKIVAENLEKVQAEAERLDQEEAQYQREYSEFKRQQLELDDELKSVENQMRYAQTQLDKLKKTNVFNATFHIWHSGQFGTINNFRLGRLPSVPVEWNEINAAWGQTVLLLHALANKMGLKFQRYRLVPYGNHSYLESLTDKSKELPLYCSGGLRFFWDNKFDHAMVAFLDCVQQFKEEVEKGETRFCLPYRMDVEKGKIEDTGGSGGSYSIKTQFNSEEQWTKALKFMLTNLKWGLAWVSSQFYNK

Test [6] concerns the target vBcl-2 with a deletion of the BH2 domain only, in pGBKT7 (yeast two-hybrid) (murine γ-herpesvirus 68 (γHV68)) (UniProt P89884). Nature of the test: two-hybrid; GAL4-based; yeast AH109 expressing the Beclin1 BH3-like domain (88-150) fused to the Gal4 activation domain (pGADT7), transformed with pGBKT7 plasmids of vBcl-2 and its mutants; α-galactosidase activity.
For test [7], the target named is T2, wild-type vBcl-2 in pGBKT7 (yeast two-hybrid) (murine γ-herpesvirus 68 (γHV68)) (UniProt P89884).
T2 sequence: T1 sequence
The test is described as above.

In test [8] the target is HA-tagged vBcl-2 ΔBH2 (murine γ-herpesvirus 68 (γHV68)) (UniProt P89884). Put plainly: co-IP; 293T cells transfected with HA-vBcl-2 constructs; immunoprecipitation of HA-vBcl-2, immunoblot of endogenous Beclin1; 1% NP40 lysis buffer, 4°C.
The target in test [9] is HA-tagged vBcl-2 ΔTM (murine γ-herpesvirus 68 (γHV68)) (UniProt P89884). The test is described as above.
In test [10] the target is HA-tagged vBcl-2 Δα1 (murine γ-herpesvirus 68 (γHV68)) (UniProt P89884). The description is as above.
Test [11] has as its target HA-tagged vBcl-2 Δα7 (murine γ-herpesvirus 68 (γHV68)) (UniProt P89884). The test is described as above.
Test [12] deals with T1, HA-tagged wild-type vBcl-2 of γHV68 (murine γ-herpesvirus 68 (γHV68)). The description is as above.

No constants are given. Whether binding was seen depends on the method and setting. For part of these data: Binding seen in cells or lysates may run through a third protein. Some results given as binding are weak or reduced against the parent protein; the word gives no strength. For part of these data: Where a sequence is shown, tags or fusion partners need not be part of it.

As for “V5-tagged Beclin1 (from UniProt Q14457 1-450)”, the binding entry is on record as “binds” in [1]; “binds” in test [2]; “no binding” in test [3]; “binds” in [4]; “binds” in test [5].

For “BH3-like domain (residues 88-150) of Beclin1 fused to the Gal4 activation domain (from UniProt Q14457 88-150) (domain or fragment)”, the binding result in test [6] and in [7] was “binds” throughout.

Consider “endogenous Beclin1 of 293T cells (from UniProt Q14457 1-450)”, for which the binding result in test [8] is “binds”; in [9] it was “binds”; in [10] it was “no binding”; in test [11], “binds”; in test [12], “binds”.
